Measurements taken from the supplement of paper PMC11417369.
The other results are listed elsewhere or left out.

Tested on: PfHDP1 homeodomain (GST-tagged)
Test: gcPBM binding intensity (ln(normalized median fluorescence intensity)); higher = stronger DNA binding
How it was run: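 After 1 h on an Agilent 4 × 180k array of primer-extended double-stranded 36-bp intergenic genomic probes and negative controls, bound GST-tagged P. falciparum DNA-binding domains were detected with Alexa488 anti-GST antibody and scanned at 488 nm. The domains had been expressed in E. coli, and binding took place in 1× PBS with 1% milk, 0.2 mg/ml BSA, 0.5% salmon testes DNA and 0.03% Triton X-100. Binding intensity is the highest Masliner-normalised natural-log median intensity across replicate spots of either probe orientation.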

Row | Sequence | gcPBM binding intensity (ln)
1 | AAAAAAAATGATAATATACACACTTATGGGAGAGCG [CACACA_site2516] | 6.28
2 | AGAAATAAGAAATATACACACATATAAATATAAATA [CACACA_site7342] | 6.5
3 | ATATATATATATATATGTACTGAATAAAGAACAAAA [XGTACX_site5400] | 9.28
4 | CGTATATGACAAAAGCGTACGCATCAGCAGAAAAAT [XGTACX_site6248] | 7.13
5 | TATTTGTAAATCGATACACACATATAGATTAATATA [CACACA_site6237] | 6.42
6 | ATAAGGAAGGGATGCACACAAAAGGGTACATAAGAA [CACACA_site4006] | 7.89
7 | TTTGAATCCTTATATACACACATTATAAAATATTAT [CACACA_site6406] | 6.76
8 | TATTGTATATACTATACACACACATACATACATACA [CACACA_site8172] | 7.44
9 | AGAATATTTAATTCAACACACATACATATTTATTAA [CACACA_site5318] | 6.21
10 | GGATAATATATTAGAACACACATATAGATGTAAAAA [CACACA_site6229] | 6.73
11 | TACTTTATATAAAGATCAAAAAATAAATAATTATAA [TGCATGCA_negctrl_site446] | 6.36
12 | GAAGCCCTATGAAAAGTGCGGTTCATGAACAAAGAA [GTGCAC_site9828] | 6.94
13 | ATATATTTATATAAATGTACATACAGCACATTTATA [XGTACX_site4725] | 6.42
14 | CAAATATACATATGTAGTACATGTTGTAGATAATTT [XGTACX_site2790] | 6.55
15 | TTATATTATACATACACACCCATATAATATGTTTTT [CACACA_site4636] | 7.06
16 | AGCTACACACCACAATGTACATAAATATATATGTGA [XGTACX_site1483] | 6.82
17 | TCTTATGAATATCCCCGTACACATATATTTCTTATA [XGTACX_site6877] | 7
18 | TTGTTTTTGTTCTTGGGTACTTAAATTATAAATGAT [XGTACX_site113] | 6.93
19 | ATTTTATATCTGGATAGTACTTTAATATTTCAAATG [XGTACX_site7304] | 6.3
20 | GTATTTATAAATTATAGTACTTTGCGTATCATATAT [XGTACX_site7358] | 6.75
21 | GGATATTCATTAACCACACACACAAAAAAAATAAAA [CACACA_site3800] | 6.85
22 | TATATATCATATGATACATGCAACAAAATGCATAAT [TGCATGCA_site205] | 6.89
23 | TACTTACCAAAATACACACACACACTAGATATATAA [CACACA_site5096] | 6.93
24 | ATGTATATTACTCATTGTACTTATATTTTCTTATTA [XGTACX_site8897] | 6.51
25 | TAAAATGCAATCTGAACACACATATTTTTTTAATAT [CACACA_site6922] | 6.73
